Test results as given in publication PMC6919601, “Identification of Plasmodium dipeptidyl aminopeptidase allosteric inhibitors by high throughput screening” (PLoS ONE, 2019).
Hit rate of the full screen: of about 110,000 compounds, about 230 (0.21%) showed an effect of 50% or more. This is one part of the list.

target: DPAP1 (Plasmodium falciparum, UniProt Q8IIJ9); assay: primary screen, percent inhibition; read by cleavage of a fluorogenic dipeptide substrate; higher = more effect of the substance; set-up: species or system P. falciparum D10 trophozoite lysates; single well
Sequence (Q8IIJ9 whole entry, looked up): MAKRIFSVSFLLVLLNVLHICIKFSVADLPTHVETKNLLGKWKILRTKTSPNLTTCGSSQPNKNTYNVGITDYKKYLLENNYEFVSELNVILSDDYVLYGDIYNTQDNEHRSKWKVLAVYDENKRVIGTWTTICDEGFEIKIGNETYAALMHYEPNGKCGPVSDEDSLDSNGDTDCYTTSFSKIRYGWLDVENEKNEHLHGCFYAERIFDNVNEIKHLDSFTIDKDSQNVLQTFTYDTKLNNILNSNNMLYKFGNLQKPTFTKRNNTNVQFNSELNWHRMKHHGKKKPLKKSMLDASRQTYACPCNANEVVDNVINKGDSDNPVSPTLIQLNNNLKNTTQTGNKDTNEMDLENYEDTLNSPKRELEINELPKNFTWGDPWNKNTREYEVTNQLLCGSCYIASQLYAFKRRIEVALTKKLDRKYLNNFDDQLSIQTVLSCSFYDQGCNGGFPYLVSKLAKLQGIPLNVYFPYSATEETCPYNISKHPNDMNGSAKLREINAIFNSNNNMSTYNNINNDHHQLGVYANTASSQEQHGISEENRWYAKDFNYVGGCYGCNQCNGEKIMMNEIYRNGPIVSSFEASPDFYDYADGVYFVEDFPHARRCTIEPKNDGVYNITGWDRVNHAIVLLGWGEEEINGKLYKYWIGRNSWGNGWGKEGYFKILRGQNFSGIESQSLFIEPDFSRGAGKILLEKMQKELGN
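Note: 30 min substrate incubation versus DMSO and 10 µM JCP410 controls.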

SMILES | % Inhibition @ 10 uM [%]
CCn1cc(CNC(=O)c2cnn3c(C(F)F)cc(-c4ccc(OC)cc4)nc23)cn1 | -3.53
Cc1cccc2c1-c1sc(C(=O)N3CCCCC3C)cc1CO2 (stereo not shown) | -4.85
COc1ccc(CCNC(=O)c2noc3c2CCCCC3)cc1OC | -4.43
Cn1nc(C(=O)NCc2cccnc2)c2c1-c1ccccc1SC2 | 36.1
CS(=O)(=O)N(CC(=O)N1CCN(c2ccc(F)cc2)CC1)Cc1ccccc1 | 3.29
CC(C)OP(=O)(OC(C)C)C(Nc1ccccc1)c1c[nH]c2ccccc12 (stereo not shown) | -0.215
CC(/C=C1\N=C(c2ccc(C)cc2)OC1=O)=C\c1ccccc1 | -5.03
CCCCCCOC(=O)C1=C(C)NC(=O)NC1c1ccccc1 (stereo not shown) | 20.4
CCOc1cccc(OCC)c2c(C)[n+](C)c(C)c1-2 | -0.85
COc1ccc(CN2CCCC(O)C2)c(OC)c1 (stereo not shown) | 3.01
COc1ccc(NC(=O)c2c(NC(=O)c3cccnc3)sc3c2CCC3)cc1 | -2.98
Oc1cc(-c2ccccc2)nc2nc(NCc3ccc(Cl)cc3)nn12 | 1
O=C(O)c1ccccc1NC(=O)c1c(C(=O)O)cccc1[N+](=O)[O-] | -1.42
O=C(Nc1nccs1)c1ccc2c(c1)C(=O)N(c1cccc(C(=O)c3ccccc3)c1)C2=O | 5.04
CC(=O)c1c(C(C)=O)c(C)n(Cc2ccc(Cl)cc2)c1C | -9.53
O=C(CSc1nc(O)c2nc[nH]c2n1)NCc1ccccc1 | -4.95
O=C1NC(c2ccc(Cl)cc2)Oc2ccccc21 (stereo not shown) | 3.24
COc1ccc(Cl)c(NCCC(=O)O)c1 | -3.48
O=S(=O)(c1ccc(Br)cc1)N1CCSC1c1ccco1 (stereo not shown) | 1.61
O=C(Nc1ccc(Br)cc1)C1Cc2ccccc2CN1S(=O)(=O)c1cccs1 (stereo not shown) | -1.95
CCOc1ccc(C2c3c(oc4ccc(C)cc4c3=O)C(=O)N2c2nccs2)cc1 (stereo not shown) | 3.73
CNC(=O)C(NC(=O)c1ccc(C)cc1)C12CC3CC(CC(C3)C1)C2 (stereo not shown) | 5.93
CC1(C)CC(=O)C(/C=N/C2CCCC2)=C(O)C1 | 8.01
CC(=O)C1=C(O)C(=O)N(CCCN2CCOCC2)C1c1ccc(Cl)cc1Cl (stereo not shown) | -5.08
CCOc1cccc(C2C(C(=O)OC)=CN(C)C=C2C(=O)OC)c1 | -3.23

SMILES | % Inhibition @ 10 uM [%]
CCOCCCNC(=O)Cc1ccc(Br)cc1 | 0.13
Cc1cccc(NC(=O)CCSc2nc(C)cc(C)n2)c1 | -7.3
COc1cccc2c1cc1c(=O)n(CC(=O)NC(C)C34CC5CC(CC(C5)C3)C4)nc(C)n12 (stereo not shown) | 4.84
CCN(CC)c1c(S(=O)(=O)c2ccc(Cl)cc2)cnc2ccc(OC)cc12 | -1.06
COc1ccc(CNC2C3CC4CC(C3)CC2C4)cc1C (stereo not shown) | -0.582
CCOc1ccccc1-c1nn2c(-c3ccc(F)cc3)nnc2s1 | 2.89
N#Cc1c(N)n(CCO)c2nc3ccccc3nc12 | 2.33
O=C1C2C3c4ccccc4C(c4ccccc43)C2C(=O)N1Cc1cccnc1 (stereo not shown) | 1.87
Cc1cc(/C=C2/NC(=O)N(Cc3ccccc3F)C2=O)c(C)n1C | -10.8
O=C(COc1ccc(Br)cc1)Nc1ccc(F)cc1 | 0.247
O=C(NCCN1CCOCC1)c1cnn(-c2ccc(F)cc2F)c1C1CCNCC1 | -4.21
CC(C)Oc1ccccc1/C=C1\Cc2ccccc2C1=O | 10.1
N=C1/C(=C\c2coc3ccccc3c2=O)C(=O)N=C2SC(Cc3ccc(Cl)cc3)=NN12 | -7.65
OC1=C2C(=Nc3nc4ccccc4n3C2c2ccc(F)cc2)CCC1 (stereo not shown) | -3.37
CCCc1nnc(NC(=O)C(=O)c2c[nH]c3ccccc23)s1 | 2.32
CCC1CCCCN1CCCNc1cnnc2c(Cl)cccc12 (stereo not shown) | -0.884
Cc1ccc2oc(Nc3nc(C)cc(O)n3)nc2c1 | -2.39
O=C(Nc1ccc2oc(-c3ccccc3Br)nc2c1)c1cccc2ccccc12 | 2.6
c1ccc2nc(-c3nc4ccccc4s3)ccc2c1 | 1.74
Cc1ccc(C(C)C)c(OCc2nnnn2-c2ccccc2)c1 | -2.85
Cc1cccc(CN2C(=O)N/C(=C/c3cc(C)n(-c4ccc(S(N)(=O)=O)cc4)c3C)C2=O)c1 | -1.74
COc1cc(C(=O)Nc2cccc(NC(=O)c3cc(F)c(F)cc3Cl)c2)cc(OC)c1OC | 8.6
COc1ccc(C(=O)N2CCN(Cc3cc(OC)c(O)c(OC)c3)CC2)cc1OC | 1.28
FC(F)(F)c1ccc(-c2noc(-c3ccco3)n2)cc1 | -7.96
CCOC(=O)c1cc(-c2ccc(C)cc2)n(CC(=O)NCCC(C)C)c1C | 1.72

SMILES | % Inhibition @ 10 uM [%]
C#CC(C)(CC)NC(=O)Cc1ccc(Cl)cc1 (stereo not shown) | 1.03
CCSC1=NC2(CCN(S(=O)(=O)Cc3ccccc3)CC2)N=C1c1ccccc1 | 2.07
COc1ccc(Br)cc1/C=c1\sc2ncnn2c1=O | 0.222
COc1ccc(CCNC(=O)c2cc3cccc4c3n2CC(C)S4)c(OC)c1 (stereo not shown) | 4.44
O=C(Cc1ccccc1)Nc1nnc(-c2ccc(F)cc2)s1 | 4.35
O=C(NCCCN1CCOCC1)c1cc2c(s1)-c1ccc(Cl)cc1SC2 | -4.24
CCC1(CO)COC(c2ccco2)OC1 (stereo not shown) | 3.32
COCCCNC(=O)c1ccc(CSc2nc3cccnc3n2Cc2cccc(C)c2)cc1 | 7.69
O=C(c1ccc(C(=O)N2CCc3ccccc32)cc1)N1CCc2ccccc21 | -9.3
CCOCCCNCc1ccc(N(C)C)cc1 | -3.26
O=C1CC(N2CCCCC2)C(=O)N1c1ccccc1Cl (stereo not shown) | -10.6
Cn1cc(/C(Cc2ccccc2)=N/O)c2ccccc21 | 3.42
Nc1nc(CN2CCN(c3ccc(F)cc3)CC2)nc(Nc2ccccc2)n1 | -0.884
C=CCc1cc(/C=C2/C(=N)N3OC(C)=CC3=NC2=O)cc(OC)c1O | 0.317
Cc1cccn2c(=O)c3cc(C(=O)NCc4ccccc4)c(=N)n(CCc4ccccc4)c3nc12 | -3.27
COc1ccc2cc3c(N)nn(C(=O)C4CCC(C(C)(C)C)CC4)c3nc2c1 (stereo not shown) | 4.15
C=CCn1c(SCC(=O)Nc2ccccc2)nc2sc3c(c2c1=O)CCC3 | -1.28
CCCC(=O)Nc1ccc(S(=O)(=O)Nc2c(C)cc(C)cc2C)cc1 | -3.39
CS(=O)(=O)c1ccc(S(=O)(=O)N2CCC(C(N)=O)(N3CCCCC3)CC2)cc1 | -3.49
C=CCn1c(SCC(=O)N2CCOCC2)nc(O)c(Cc2ccccc2)c1=O | 0.726
COc1cc2nc3c(O)n(CCN4CCCCC4C)cnc-3c2cc1OC (stereo not shown) | -0.0235
CC(=O)C1=C(O)C(=O)N(c2cccc(Br)c2)C1c1ccccc1 (stereo not shown) | -0.711
CCc1ccc(CN2CCN(C/C=C/c3ccccc3)CC2)cc1 | -0.0404
Cc1ccccc1CN1CCN(c2cccc(C(F)(F)F)c2)CC1 | -0.294
COc1cc(OC)c(OC)cc1/C=C(/C#N)C(N)=S | -4.65

SMILES | % Inhibition @ 10 uM [%]
COc1ccc(CN2CCN(Cc3csc(C)c3C)CC2)c(OC)c1OC | 3.1
CN(c1ccccc1)S(=O)(=O)c1ccc(Cl)c(C(=O)Nc2ccccc2C(=O)O)c1 | 1.56
COCCN1C=C(C(=O)OC)C(c2cccc(C)c2)C(C(=O)OC)=C1 | -1.11
Cc1ccc(OCc2ccc(C(=O)N3CCCC3)o2)cc1C | 0.413
CC1=C(C(=O)OCC(C)C)C(c2cccc(Cl)c2Cl)CC(=O)N1 (stereo not shown) | -0.0508
COc1ccc2nc(N3CN(c4nc5ccc(OC)cc5s4)CN(C(C)C)C3)sc2c1 | -3.53
O=S(=O)(c1cccc(C(F)(F)F)c1)N1CCCC(n2nnc3ccccc32)C1 (stereo not shown) | 5.43
COc1cccc(-c2nc3sc4c(c3c(=O)n2CC(=O)NC2CCCCC2)CCCC4)c1 | 2.38
CC1CCC(N2CCN(c3ccc(F)cc3)CC2)CC1 (stereo not shown) | -2.18
Cc1cc(C)n2c(SCc3cccs3)nnc2n1 | -1.43
O=C(c1cccnc1)N1CCN(C/C=C/c2ccccc2)CC1 | 1.87
CCOC(=O)C1=C(C)n2c(s/c(=C/c3cccc(O)c3)c2=O)=NC1c1ccc(O)c(OC)c1 (stereo not shown) | 5.98
Cc1ccc(S(=O)(=O)NCCCCC(NC(=O)OC(C)(C)C)C(=O)O)cc1 (stereo not shown) | -4.27
COCCCNC(=O)CNC(=S)N(Cc1ccccc1)Cc1cccnc1 | 1.27
C=CCc1ccccc1OCCSc1nc(-c2cccc(OC)c2)nc2cc(=O)[nH]n12 | 9.47
CC(=O)N(CN1C(=O)c2ccccc2C1=O)c1ccccc1Cl | 0.687
O=C(Nc1cccc2ccccc12)c1cccnc1 | -8.49
CC(=O)Nc1ccccc1NC(=O)Nc1ccc(Cl)cc1 | -1.22
CCCC(=O)NC(=O)/C(C#N)=C/Nc1cccc(Br)c1 | 0.687
COc1ccc(NC(=O)c2cc3ccccc3cc2O)c([N+](=O)[O-])c1 | -3.79
CCCC(C)c1c(O)n(CC)c(SC)nc1=O (stereo not shown) | 0.0792
CCOC(=O)Cc1sc(N)c(C#N)c1C | 10.7
CC(C)(C)c1ccc(OCC(=O)Nc2ccc(Cl)cn2)cc1 | 17.3
CCOc1ccc(S(=O)(=O)/N=C2/C=C(Sc3nc[nH]n3)C(=O)c3ccccc32)cc1 | 4.96
O=C1CN(C(=O)c2ccccc2)C(c2ccccc2)c2cc(Br)ccc2N1 (stereo not shown) | 0.0345
